± gives the standard deviation of the averaged measurements. The list shows a part of the results.

This test has as its system PfAP2-EXP AP2 domain (GST-tagged). Nature of the test: gcPBM binding intensity (ln(normalized median fluorescence intensity)); higher = stronger DNA binding. The gist of the method: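 Probes on an Agilent 4 × 180k array were primer-extended, double-stranded and 36 bp long, taken from intergenic genomic regions, with negative controls added. GST-tagged P. falciparum DNA-binding domains from E. coli, about 25 μg on average, were applied to the array for 1 h in 1× PBS containing 1% milk, 0.2 mg/ml BSA, 0.5% salmon testes DNA and 0.03% Triton X-100. Binding intensity, obtained after Alexa488 anti-GST antibody detection and a 488 nm scan, is the highest Masliner-normalised natural-log median intensity across replicate spots of either probe orientation.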
“TTAGAAATTCATTTTACACACAATTCAAAAGAATGT [CACACA_site2104]”: the “gcPBM binding intensity (ln)” value was found to be 8.04 ± 0.45.

Turning to “AATTTGAAATAAAGTAGTACAGTATATAAAAATATA [XGTACX_site128]”, the “gcPBM binding intensity (ln)” value was determined as 8.58 ± 0.38. To “CGGATCTATAAGTGTACACAATCTAGCGAAAAGTTT [CACACA_site4932]” belongs 8.72 ± 0.55; to “ATAAAATAAAAAAGTAGTACACACTTCACGATATTT [XGTACX_site8289]”, 8.67 ± 0.23; to “ATAATTATAAAATAAACACACATATATATTTATATG [CACACA_site440]”, 8.27 ± 0.35. As for “AATAAATAAACAAATTAACACACAGAATTTTTTTTT [CACACA_site8485]”, the figure is 8.45 ± 0.59; as for “ATTATGTTATATATATGTACATATATAATGTTCATA [XGTACX_site6184]”, 8.47 ± 0.28; as for “AAAAATAATGCACATATATATAATATGTATATGTAT [CACACA_negctrl_site443]”, 8.95 ± 0.33. As for “ATGTTTACATATTAGGGTACATAATAAATTGCATAT [XGTACX_site6712]”, the figure is 8.46 ± 0.36; as for “TTATTGTAAATATATGCATGTGCAAAATGAAAAAAA [TGCATGCA_site399]”, 9.07 ± 0.18; as for “TTTTAAACAAGACACACACACATATATATATATATA [CACACA_site925]”, 10.2 ± 0.35. For “GAATGTATAAAATGAACACACGCCAAATTAAATGAA [CACACA_site3044]”, the “gcPBM binding intensity (ln)” value was 8.56 ± 0.45. As for “CATGTATTTTATATTACACACTAATATTATATATAT [CACACA_site1508]”, the figure is 8.48 ± 0.32; as for “ATATTAGATTAATTTACACACAGAAAATGAGATTTT [CACACA_site541]”, 8.21 ± 0.36; as for “CCAACATATATTATCACACACATATATATATATATA [CACACA_site2016]”, 10.2 ± 0.22. On to “AATAAACAAATATGTACACACATATACCTATAAATA [CACACA_site7358]”, for which the “gcPBM binding intensity (ln)” value amounted to 8.48 ± 0.34. As for “TAGAGTATATATAAATGTACATATTTTATGCTAATT [XGTACX_site7821]”, the figure is 8.47 ± 0.24; as for “AAAAAATTAAATAATTACAAAAAAATAAAATAAAAA [GTGCAC_negctrl_site638]”, 8.49 ± 0.47; as for “TATGGAAGAAAATATACACACAAAAAAAAAAAATGG [CACACA_site4924]”, 8.65 ± 0.46. As for “ATGATTTTTTTTATTTTTTAGCTAGAGCTAGCTTAT [CACACA_negctrl_site433]”, the figure is 8.44 ± 0.39; as for “AACACTCAAAAAAATTTAAATAAAAAAAAAAAAAAA [CACACA_negctrl_site680]”, 8.11 ± 0.63. For the sequence “TATGAATGCTTTTATGCACACGTACAAAAATATTAT [CACACA_site8851]”, the “gcPBM binding intensity (ln)” value came to 8.53 ± 0.22. As for “ATATGTTAAAAATTCACACAAAAAAGTATACAGATA [CACACA_site4179]”, the figure is 8.86 ± 0.46.

For the sequence “TTACCTATTCTAAAATGTACACATTATATATGTGCT [XGTACX_site5776]”, the “gcPBM binding intensity (ln)” value worked out at 8.53 ± 0.3. To “ACATGTTTCATATGTTGTACTAACTTAAATATAAAT [XGTACX_site6412]” belongs 8.5 ± 0.31; to “TTGTACATCTTTTGCACACGTAATGTTATTAAAATA [CACACA_site4827]”, 8.79 ± 0.26; to “TGTATATTTGTTGTTACACACATATATTTTTTTTTT [CACACA_site128]”, 8.53 ± 0.3.

For “TTATAACAAAAAATTAAAGAAAGAGAATAAGTGAAA [CACACA_negctrl_site975]”, the “gcPBM binding intensity (ln)” value amounted to 8.83 ± 0.45. For the sequence “AGGTCCTACACCAATAAATATCATATATATATTATA [CACACA_negctrl_site568]”, the “gcPBM binding intensity (ln)” value turned out to be 8.22 ± 0.37.

“TTAACTATAATAAAATGTACATATGTAACATATATA [XGTACX_site7790]”: the “gcPBM binding intensity (ln)” value was determined as 8.41 ± 0.34.

For “TTGATATCTTTTTTTTGTACATATATTTATAAGTAA [XGTACX_site3538]”, the “gcPBM binding intensity (ln)” value was found to be 8.74 ± 0.48.

“TTTTTTTAAATTATATGTACATAATTTTAATTTTAT [XGTACX_site5086]”: the “gcPBM binding intensity (ln)” value amounted to 8.33 ± 0.28. As for “AAAATATAAGCCACTACACACATATATAAATGTATA [CACACA_site2639]”, the figure is 8.35 ± 0.43; as for “TTTTAGAGTGATATATATTAACTTTTAATAAAAAAA [CACACA_negctrl_site611]”, 7.89 ± 0.3. On to “GTTATACACATATATACACACATATGTAGATATATA [CACACA_site7529]”, for which the “gcPBM binding intensity (ln)” value was determined as 8.48 ± 0.33. With “TAAAGTACAGGAGTAAATTGAAAAAAAAAAAAAAAA [CACACA_negctrl_site1410]”, the “gcPBM binding intensity (ln)” value came out at 8.29 ± 0.4. To “ATAAATAAATAAATACGTACATATATATATATATAT [XGTACX_site8838]” belongs 9.98 ± 0.38; to “TATAATATTCCTTTTTAACACACATATGAACAAATA [CACACA_site7932]”, 8.48 ± 0.47.

“ATACATATATTTTTATGTACATATATTTTTTTTGTA [XGTACX_site4546]”: the “gcPBM binding intensity (ln)” value came to 8.52 ± 0.2.

Turning to “TATTTTTTTTGTCATATATAAGAAACGCTCTTCTTT [TGCATGCA_negctrl_site127]”, the “gcPBM binding intensity (ln)” value stood at 8.49 ± 0.56. To “ATATTTATATTTTCATGTACGTATTTTTATATATAT [XGTACX_site8478]” belongs 8.715 ± 0.021; to “TGCATTATATTAAATTTTTTATTTGTTGATGTTATA [GTGCAC_negctrl_site371]”, 8.39 ± 0.26; to “TGAAATAAAATTTGTACACACATATTTATTTATATA [CACACA_site6421]”, 8.19 ± 0.12. As for “AAATAAAAGATATTTTTACACACTTTTGATGAGATC [CACACA_site9000]”, the figure is 8.16 ± 0.39.

Values taken from the supplement of paper PMC11417369.
